Reference: the RNAGym collection of RNA variant scans (doi:10.1101/gad.245936.114)
Variants at the background level are over-represented here.

B1: tRNA (parent)
chain: CUCUCGGUAGCCAAGUUGGUUUAAGGCGCAAGACUUUAAUUUAUCACUACGAAAUCUUGAGAUCGGGCGUUCGACUCGCCCCCGGGAGAUUUUUUCCUCGAGCAA

Variants of: B1
Test: nonsense suppression (GFP-seq) (ratio to wild type); higher = more function; SUP4oc tRNA, yeast GFP reporter sort-seq
Outline: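 Nonsense suppression (GFPSEQ) is the median GFP/RFP ratio of each sorting bin, weighted by the variant's estimated share of cells in that bin and expressed relative to the unmutated parent tRNA. Yeast strains carried genome-integrated variants of an ochre-suppressor tRNA from a library with ~3% random mutations, plus a galactose-driven GFP ochre reporter and RFP, and were grown in raffinose/galactose medium containing 80 mg/L adenine. Cells were sorted into GFP/RFP bins, each bin was Illumina-sequenced (phred ≥30), and variants were kept only with ≥100 reads and ≥30 cells.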

Nonsense suppression, ≤ 0.026:
UUCUCGGUAGCCAAGUUGGUCUAAGGCGCAAGACUUUAAUUUAUCACUACGAAAUCUUGAGAUCGUGCCUUCGACUCGCCCCCGGGAGAUUUUUUCCUCGAGCAA [C1U U21C G66U G69C]
UUCUCGGUAGCCAAGUUGGUGUAAGGCGCAAGACUUUAAUUUAUCACUACGAAAUCUUGAGAUCGGGCGUUCGACUCGCCCCCGGGAGAUUUUUUCCUCGAGCAA [C1U U21G]
UUCUCGGUAGCCAAGUUGGUUCAAGGCGCAAGACUUUAAUUUAUCACUACGAAGUCUUGAGAUCGGGCGUUCGAAUCGCCCCCAGGAGAUUUUUUCCUCGAGCAA [C1U U22C A54G C75A G84A]
UUCUCGGUAGCCAAGUUGGUUCAAGGCGCAAGACUUUAAUUUAUCACUACGAAAUCUUGAGAUCGGGCGUUCGUCUCGCCCCCGGGAGAUUUUUUCCUCGAGCAA [C1U U22C A74U]
UUCUCGGUAGCCAAGUUGGUUCAAGGCGCAAGACUUUAAUUUAUCACUACGAAAUCGUGAGAUCGGGCGUUCGACUCGCCCCUGGGAGAUUUUUUCCUCGAGCAA [C1U U22C U57G C83U]
UUCUCGGUAGCCAAGUUGGUUUAAGGCGCAAGACAUUAAUUUAUCACUACGAAAACUUGAGAUCGGGCGUUCGACUCGCCCCCGGGAGAUUUUUUCCUCGAGCAA [C1U U35A U55A]
UUCUCGGUAGCCAAGUUGGUUUAAGGCGCAAGACGUUAAUUUAUCACUACGAAAUCUUGAGAUCGGGCAUUCGACACGCCCCCGGGAGAUUUUUUCCUCGAGCAA [C1U U35G G69A U76A]
UUCUCGGUAGCCAAGUUGGUUUAAGGCGCAAGACUUUAAUUUAUCACUACGAAAACUUGAGAUCGGGCGUUCGACUCGCCCCCGGGAGAUUUUUUCCUCGAGCAA [C1U U55A]
UUCUCGGUAGCCAAGUUGGUUUAAGGCGCAAGACUUUAAUUUAUCACUACGAAACCUUGAGAUCGGGCGUUCGACUCGCCCCCGGGAGAUUUUUUCCUCGAGCAA [C1U U55C]
UUCUCGGUAGCCAAGUUGGUUUAAGGCGCAAGACUUUAAUUUAUCACUACGAAAGCUUGAGAUCGGGCGUUCGACACGCCCCCGGGAGAUUUUUUCCUCGAGCAA [C1U U55G U76A]
UUCUCGGUAGCCAAGUUGGUUUAAGGCGCAAGACUUUAAUUUAUCACUACGAAAUCAUGAGAUCGGGCGUUCGACUCGCACCCGGGAGAUUUUUUCCUCGAGCAA [C1U U57A C80A]
UUCUCGGUAGCCAAGUUGGUUUAAGGCGCAAGACUUUAAUUUAUCACUACGAAAUCUAGAGAUCGGGCGUUCGACCCGCCCCCGGGAGAUUUUUUCCUCGAGCAA [C1U U58A U76C]
UUCUCGGUAGCCAAGUUGGUUUAAGGCGCAAGACUUUAAUUUAUCACUACGAAAUCUCGAGAUCGGGCGUUCGACUCGCCCCCGGGAGAUUUUUUCCUCGAGCAA [C1U U58C]
UUCUCGGUAGCCAAGUUGGUUUAAGGCGCAAGACUUUAAUUUAUCACUACGAAAUCUUGAGAACGGCCGUUCGACUCGCCCCCGGGAGAUUUUUUCCUCGAGCAA [C1U U63A G67C]
UUCUCGGUAGCCAAGUUGGUUUAAGGCGCAAGACUUUAAUUUAUCACUACGAAAUCUUGAGACCGGGCGUUCGACUCGCCCCCGGGAGAUUUUUUCCUCGAGCAA [C1U U63C]
UUCUCGGUAGCCAAGUUGGUUUAAGGCGCAAGACUUUAAUUUAUCACUACGAAAUCUUGAGAUCGGGCGUUCGACACGCCCCCGGGAGAUUUUUUCCUCGAGCAA [C1U U76A]
UUCUCGGUAGCCAAGUUGGUUUAAGGCGCAAGACUUUAAUUUAUCACUACGAAAUCUUGAGAUCGGGCGUUCGACCCGCCCUCGGGAGAUUUUUUCCUCGAGCAA [C1U U76C C82U]
UUCUCGGUAGCCAAGUUGGUUUAAGGCGCAAGACUUUAAUUUAUCACUACGAAAUCUUGAGAUCGGGCGUUCGACGCGCCACCGGGAGAUUUUUUCCUCGAGCAA [C1U U76G C81A]
CACUCGGUCGCCAAGUUGGUUUAAGGAGCAAGACUUUAAUUUAUCACUACGAAAUCUUGAGAUCGGGCGUUCGACUCGCCCCCGGGAGAUUUUUUCCUCGAGCAA [U2A A9C C27A]
CACUCGGUCGCCAAGUUGGUAUAAGCCGCAAGACUUUAAUUUAUCACUACGAAAUCUUGAGAUCGGGCGUUCGACUCGCCCCCGGGAGAUUUUUUCCUCGAGCAA [U2A A9C U21A G26C]
CACUCGGUCGCCAAGUUGGUUUAAGGCGCAAGACUUUAAUUUAUCACUACGAAAACUUGAGAUCGGGCGUUCGACUCGCCCCCGGGAGAUUUUUUCCUCGAGCAA [U2A A9C U55A]
CACUCGGUUUCCAAGUUGGUUUAAGGCCCAAGACUUUAAUUUAUCACUACGAAAUCUUGAGAUCGGGCGUUCGACUCGCCCCCGGGAGAUUUUUUCCUCGAGCAA [U2A A9U G10U G28C]
CACUCGGUAGCCGAGUUGGUUUAAGGCGCAAGACUUUAAUUUAUCACUACGAAAUCUUGGGAUCGGCCGUUCGACUCGCCCCCGGGAGAUUUUUUCCUCGAGCAA [U2A A13G A60G G67C]
CACUCGGUAGCCACGUUGGUUUAAGGCGCAAGACUUUAAUUUAUCACUACGAAUUCUUGAGAUCGGGCGAUCGACUGGCCCCAGGGAGAUUUUUUCCUCGAGCAA [U2A A14C A54U U70A C77G C83A]
CACUCGGUAGCCACGUUGGUUUAAGGCGCAAGACUUUAAUUUAUCACUACGAAAUCAUAAGAUCGGGCGUUCGACUCGCCCCCGGGAGAUUUUUUCCUCGAGCAA [U2A A14C U57A G59A]
CACUCGGUAGCCAUGGUGGUUUAAUGCGCAAGACUUUAAUUUAUCACUACGAAAUCUUGAGAUCGGGCGUUCGACUCGCCCCCGCGAGAUUUUUUCCUCGAGCAA [U2A A14U U16G G25U G85C]
CACUCGGUAGCCAAGUUGGUUUGAGGCGCAAGACUUUAAUUUAUCACUACGAAAUCUUGAGAUCGGGCGUUCGACUCGCCCCCGGGAGAUUUUUUCCUCGAGCAA [U2A A23G]
CACUCGGUAGCCAAGUUGGUUUUAGGCGCAAGACUUUAAUUUAUCACUACGAAAUCUUGAGAUCGGGCGCUGGACUCGCCCCCGGGAGAUUUUUUCCUCGAGCAA [U2A A23U U70C C72G]
CACUCGGUAGCCAAGUUGGUUUAUGGCGCAAGACAUUAAUUUAUCACUACGAAAUCUUAAGAUCGGGCCUUCGACUCGCCCCCGGGAGAUUUUUUCCUCGAGCAA [U2A A24U U35A G59A G69C]
CACUCGGUAGCCAAGUUGGUUUAAGGCGCUAGACUUUAAUUUAUCACUACGAAAUCUUGCGAUCGGGCGUUCGACUCGCCCCCGGGAGAUUUUUUCCUCGAGCAA [U2A A30U A60C]
CACUCGGUAGCCAAGUUGGUUUAAGGCGCACGACUUUAAUUUAUCACUACGAAAUCUUGAGCUCGGGCGUUCGACUCUCCCCCGGGUGAUUUUUUCCUCGAGCAA [U2A A31C A62C G78U A87U]
CACUCGGUAGCCAAGUUGGUUUAAGGCGCACGACUUUAAUUUAUCACUACGAAAUCUUGAGAUCAGGCGUUCGACGCGCCCCCGGGAGAUUUUUUCCUCGAGCAA [U2A A31C G65A U76G]
CACUCGGUAGCCAAGUUGGUUUAAGGCGCAAGGCUUUAAUUUAUCACUACGAAAUCUUGAGAUCGGGCGUUCGACUCGCCCCCGGGAGAUUUUUUCCUCGAGCAA [U2A A33G]
CACUCGGUAGCCAAGUUGGUUUAAGGCGCAAGGCUUUAAUUUAUCACUACGAAAUCUUGAGAUCGGGCGUUCGACUCGCAGCCGGGAGAUUUUUUCCUCGAGCAA [U2A A33G C80A C81G]
CACUCGGUAGCCAAGUUGGUUUAAGGCGCAAGACUUUAAUUUAUCACUACGAACUCUUGAGAUCCGGGGUUCGACGCGCCCCCGGGAGAUUUUUUCCUCGAGCAA [U2A A54C G65C C68G U76G]
CACUCGGUAGCCAAGUUGGUUUAAGGCGCAAGACUUUAAUUUAUCACUACGAAAUCUUGAGAUCGGGCGUUCGGCUCGCCCCCGAGAGAUUUUUUCCUCGAGCAA [U2A A74G G85A]
CACUCGGUAGCCAAGUUGGUUUAAGGCGCAAGACUUUAAUUUAUCACUACGAAAUCUUGAGAUCGGGCGUUCGACUCGCCCCCGGGGGAUUUUUUCCUCGAGCAA [U2A A87G]
CACUCGGUAGCCAAGUUGGUUUAAGGCGCAAGACUUUAAUUUAUCACUACGAAAUCUUGAGAUCGGGCGUUCGACUCGCCCCCGGGAGGUUUUUUCCUCGAGCAA [U2A A89G]
CAAUCGGUAGCCAAGUUGGUUUAUGGCGCAAGACUUUAAUUUAUCACUACGAAAUCUUGAGAUCGGGCGUUCGACUCGCCCCCGGGAGAUUUUUUCCUCGAGCAA [U2A C3A A24U]
CAGUCGGUAGCCAAGUUGGUUUAAGGGGGAAGUCUUUAAUUUAUCACUACGAAAUCUUGAGAUCGGGCGUUCGACUCGCCCCCGGGAGAUUUUUUCCUCGAGCAA [U2A C3G C27G C29G A33U]
CAUUCGGUAGCCAAGUUGGUUUAAGGCGCAAGACUUUAAUUUAUCACUACGAAAUCGUGUGAUCGGGCGUUCGACUCGCCCCCGGGAGAUUUUUUCCUCGAGCAA [U2A C3U U57G A60U]
CACUAGGUAGCCAAGUUGGUUUAAGGCGCAAGACUUUAAUUUAUCACUACGAAAUCUUGAGAUCGGGCGUUCGACUCGCCCCCGGGAGAUUUUUUCCUCGAGCAA [U2A C5A]
CACUAGGUAGCCAAGUUGGUUUAAGGCGCAAGACUUUAAUUUAUCACUACGAAAACUUGAGAUCGGGCGUUCGACUCGCCCCCGGGAGAUUUUUUCCUCGAGCAA [U2A C5A U55A]
CACUUGGUAGCCAAGUUUGUUUAAGGCGCAAGACUUUAAUUUAUCACUACGAAACCUGGAGAUCGGGCGCUCGACUCGCCUCCGGGAGAUUUUUUCCUCGAGCAA [U2A C5U G18U U55C U58G U70C C81U]
CACUUGGUAGCCAAGUUGGUAUAAGGCGCAAGACUUUAAUUUAUCACUACGAAAUCUUGAGAUCGGGCGUACGACUCGCCCCCGGGAGAUUUUUUCCUCGAGCAA [U2A C5U U21A U71A]
CACUCGGUAGACAAGUUGGUUUAAGGCGCAAGACUUUAAUUUAUCACUACGAAAUCGUGAGAUCGGGCGUUCGACUCCCCCCCGGGAGAUUUUUUCCUCGAGCAA [U2A C11A U57G G78C]
CACUCGGUAGGCAAGUUGGUUUAAGGCGCAAGACUUUAAUUUAUCACUACGAAAUCUUGAGAUCGGGCGUUCGACUCGCCCCCGGGAGAUUUUUUCCUCGAGCAA [U2A C11G]
CACUCGGUAGUCAAGUUGGUUUAAGGCGCAAGACUUUAAUUUAUCACUACGAAAUCUUGAGAUCGGGCGUUCGACUCGCCCCCGGGAGAUUUUUUCCUCGAGCAA [U2A C11U]
CACUCGGUAGUCAAGUUGGUUUAAGGCCCAAGAUUUUAAUUUAUCACUACGAAACCUUGAGAUCGGGCUCUCGACUCGCCCCCGGGAGAUUUUUUCCUCGAGCAA [U2A C11U G28C C34U U55C G69U U70C]
CACUCGGUAGUCAAGUUGGUUUAAGGCGCAAGACUUUAAUUUAUCACUACGAAAUCUUGAGAUCGGGCGUUCGACUCGCCCCCGAGAGAUUUUUUCCUCGAGCAA [U2A C11U G85A]
CACUCGGUAGCGAAGUUGGUUUCAGGCGCAAGACUUUAAUUUAUCACUACGAAAUCUUGAGAUCGGGCGUUCGAAUCGCCCCCGGGAGAUUUUUUCCUCGAGCAA [U2A C12G A23C C75A]
CACUCGGUAGCGAAGUUGGUUUAAGGCGCAGGAGUUUAAUUUAUCACUACGAAAUCCUGAGAUCGGGCGUUCGACUCGCCCCCGGGCGAUUUUUUCCUCGAGCAA [U2A C12G A31G C34G U57C A87C]
CACUCGGUAGCUAAGUUGGUUUAAGGCCCAAGACUUUAAUUUAUCACUACGAAAUCUUGAGAUCGGGCGUUCGCCUCGCCCCCGGGAGAUUUUUUCCUCGAGCAA [U2A C12U G28C A74C]
CACUCGGUAGCUAAGUUGGGUUAAGGCCCAAGACUUUAAUUUAUCACUACGAAAUCUUGAGAUCGGGCGUUCGACUCGCACCCGGGAGAUUUUUUCCUCGAGCAA [U2A C12U U20G G28C C80A]
